These results are taken from the supplement of paper PMC7436455.

This is one part of the list. Rule as the data show it: only hits are listed; in these data all have Qbind below 0.67. Single values are uncertain, as repeats are few or missing.

Common to all, as to test: Qbind: 19F CPMG 200 ms/0 ms integral ratio with target relative to without target; higher = weaker binding (less relaxation enhancement by target)
In assay [1] the test system is Adenine-sensing riboswitch.
For assay [2], the system named is HDV ribozyme (70 nt). Particulars: 19F shift (ppm): -123.0231.
Assay [3] relates to Hammerhead ribozyme (54 nt). Particulars: 19F shift (ppm): -123.0231.
For assay [4], the system named is PtkA (30 kDA).
Assay [5] relates to Ribosomal protein S1 (61 kDa). Particulars: 19F shift (ppm): -122.9511.
Assay [6] relates to T7 RNAP (100kDA).
The subject of assay [7] is TPP-sensing riboswitch tenA.
In assay [8] the test system is TPP-sensing riboswitch thiM (80).
For assay [9], the system named is Tel26 G-quadruplex (26 nt).
Assay [10] deals with Translation initiation region (60 nt). Particulars: 19F shift (ppm): -123.0231.
Assay [11] concerns ZMP-sensing riboswitch.
Assay [12] relates to cGAMP-sensing riboswitch. Particulars: 19F shift (ppm): -122.9511.
For assay [13], the system named is cKit G-quadruplex (24 nt).
The subject of assay [14] is cMyc G-quadruplex (22 nt).
Assay [15] has as its system wtTel26 G-quadruplex (26 nt).
Assay [16] has as its system Terminator stem (39 nt).
The subject of assay [17] is c-di-GMP-sensing riboswitch (98 nt). Particulars: 19F shift (ppm): -112.8194.

With `COc1cccc(C(=O)Nc2ccccc2F)c1`, the “Qbind: 19F CPMG 200 ms/0 ms integral ratio” value was active: 0.24 in assay [1] (19F shift (ppm): -123.0231); active: 0.522 in assay [2]; active: 0.558 in assay [3]; active: -0.204 in assay [4] (19F shift (ppm): -122.85); active: -0.116 in assay [5]; active: 0.115 in assay [6] (19F shift (ppm): -122.9511). The “Qbind: 19F CPMG 200 ms/0 ms integral ratio” value is active: -0.031 in assay [7] (19F shift (ppm): -123.0184); active: -0.0132 in [8] (19F shift (ppm): -123.0184); active: 0.06 in assay [9] (19F shift (ppm): -123.0818); active: 0.178 in assay [10]; active: 0.251 in [11] (19F shift (ppm): -122.9511); active: 0.448 in assay [12]. The “Qbind: 19F CPMG 200 ms/0 ms integral ratio” value in assay [13] (19F shift (ppm): -123.0818) is active: 0.25; in assay [14] (19F shift (ppm): -123.0818), active: -0.0274; in assay [15] (19F shift (ppm): -123.0818), active: -0.102.

Take `CCNC(=O)c1ccc(N(C)C)c(F)c1`: the entries for the “Qbind: 19F CPMG 200 ms/0 ms integral ratio” value in assay [1] (19F shift (ppm): -121.592), in assay [7] (19F shift (ppm): -121.5553) and in assay [11] (19F shift (ppm): -121.528) were active: 0.615, active: 0.653 and active: 0.662, respectively.

As to `Fc1ccc(CNC[C@H]2CCCO2)cc1`, the “Qbind: 19F CPMG 200 ms/0 ms integral ratio” value in assay [8] (19F shift (ppm): -112.1831) is active: 0.624.

With `CNc1ncc(C(F)(F)F)cc1Cl`, the “Qbind: 19F CPMG 200 ms/0 ms integral ratio” value in [11] (19F shift (ppm): -60.8707) was active: 0.551.

Consider `CC(=O)Nc1cccc(F)c1C(=O)O`, for which the “Qbind: 19F CPMG 200 ms/0 ms integral ratio” value in assay [6] (19F shift (ppm): -115.9533) is active: 0.323.

Take `O=C(NCCc1ccncc1)c1ccccc1F`: the “Qbind: 19F CPMG 200 ms/0 ms integral ratio” value in assay [7] (19F shift (ppm): -115.614) was active: 0.37; in assay [13] (19F shift (ppm): -115.635) it was active: 0.613.

On to `O=C(Cc1ccc(F)cc1)NC1CCCCC1`, for which the “Qbind: 19F CPMG 200 ms/0 ms integral ratio” value is active: -0.0214 in [4] (19F shift (ppm): -116.2645) and active: 0.246 in [6] (19F shift (ppm): -116.29).

In the case of `COC(=O)N1CCN(c2ccc(F)cc2)CC1`, the entries for the “Qbind: 19F CPMG 200 ms/0 ms integral ratio” value in [4] (19F shift (ppm): -121.82) and in [13] (19F shift (ppm): -121.8432) were active: 0.199 and active: 0.602, respectively.

Consider `O=C(c1c(F)cccc1F)N1CCCCCC1`, for which the “Qbind: 19F CPMG 200 ms/0 ms integral ratio” value in [9] (19F shift (ppm): -112.6352) is active: 0.267; in assay [13] (19F shift (ppm): -112.6352) it was active: 0.149; in assay [14] (19F shift (ppm): -112.672) it was active: 0.319.

For the molecule `Cc1cc(F)ccc1CS(N)(=O)=O`, the results for the “Qbind: 19F CPMG 200 ms/0 ms integral ratio” value in assay [6] (19F shift (ppm): -113.7396), in assay [8] (19F shift (ppm): -113.763) and in [13] (19F shift (ppm): -113.7698) were active: 0.302, active: 0.555 and active: 0.644, respectively.

For the molecule `CC(O)COc1cccc(F)c1` (configuration not stated), the “Qbind: 19F CPMG 200 ms/0 ms integral ratio” value in assay [8] (19F shift (ppm): -111.9628) was active: 0.64.

As to `CN1CCN(C(=O)Nc2ccc(F)cc2)CC1`, the results for the “Qbind: 19F CPMG 200 ms/0 ms integral ratio” value in assay [7] (19F shift (ppm): -118.212) and in [11] (19F shift (ppm): -118.191) were active: 0.501 and active: 0.352, respectively.

For `CC(=O)c1ccc(OC(F)F)cc1`, the “Qbind: 19F CPMG 200 ms/0 ms integral ratio” value in assay [6] (19F shift (ppm): -82.8327) is active: 0.318; in assay [7] (19F shift (ppm): -82.8327) it was active: 0.105; in [11] (19F shift (ppm): -82.8327), active: 0.216.

As for `CC1(S(=O)(=O)N2CCC=C(F)C2)CC1`, the “Qbind: 19F CPMG 200 ms/0 ms integral ratio” value in assay [6] (19F shift (ppm): -114.624) was active: 0.274.

`Fc1ccc(Cn2cnc3ccccc32)cc1`: the “Qbind: 19F CPMG 200 ms/0 ms integral ratio” value in [6] (19F shift (ppm): -108.367) is active: 0.26; in assay [9] (19F shift (ppm): -108.4314) it was active: 0.556.

Regarding `CNC(=O)c1c(-c2ccc(F)cc2)noc1C`, in assay [6] (19F shift (ppm): -110.3505), the “Qbind: 19F CPMG 200 ms/0 ms integral ratio” value was active: 0.141.

With `CCn1cc(C(=O)NCc2ccc(F)cc2)cn1`, the “Qbind: 19F CPMG 200 ms/0 ms integral ratio” value in assay [6] (19F shift (ppm): -116.004) was active: 0.292.

Consider `NC(=O)c1cnc(C(F)(F)F)nc1`, for which the entries for the “Qbind: 19F CPMG 200 ms/0 ms integral ratio” value in assay [6] (19F shift (ppm): -70.2283) and in assay [7] (19F shift (ppm): -70.3042) were active: 0.0261 and active: 0.548, respectively.

For `CNC(=O)NCc1c(F)cccc1Cl`, the “Qbind: 19F CPMG 200 ms/0 ms integral ratio” value in assay [4] (19F shift (ppm): -114.7383) is active: 0.106; in assay [7] (19F shift (ppm): -114.6748), active: 0.626; in assay [8] (19F shift (ppm): -114.6748), active: 0.246.

Turning to `CNS(=O)(=O)c1cccc(C)c1F`, in [6] (19F shift (ppm): -110.5185), the “Qbind: 19F CPMG 200 ms/0 ms integral ratio” value is active: 0.219.

Regarding `C[C@@H](CO)Nc1ncc(Cl)cc1F`, the “Qbind: 19F CPMG 200 ms/0 ms integral ratio” value in assay [7] (19F shift (ppm): -136.286) is active: 0.608.

As to `O=C(C1CC1)N1CCN(c2ccc(F)cc2)CC1`, the results for the “Qbind: 19F CPMG 200 ms/0 ms integral ratio” value in [4] (19F shift (ppm): -121.8704) and in assay [6] (19F shift (ppm): -123.0852) were active: 0.223 and active: -0.293, respectively.

Take `Cl.N[C@@H]1CCCN(C(=O)CCC(F)(F)F)C1`: the “Qbind: 19F CPMG 200 ms/0 ms integral ratio” value in assay [7] (19F shift (ppm): -112.2375) is active: 0.576; in assay [9] (19F shift (ppm): -112.292) it was active: 0.195; in [13] (19F shift (ppm): -112.292), active: 0.387; in [14] (19F shift (ppm): -112.292), active: 0.0153; in [15] (19F shift (ppm): -112.292), active: 0.512.

Turning to `CN1CCN(c2ncccc2F)CC1=O`, the “Qbind: 19F CPMG 200 ms/0 ms integral ratio” value in assay [8] (19F shift (ppm): -128.107) is active: 0.613.

As for `Fc1cccc(CN2CCOCC2)c1`, the “Qbind: 19F CPMG 200 ms/0 ms integral ratio” value in [16] (19F shift (ppm): -112.8194) was active: 0.133; in assay [17], active: 0.526; in assay [13] (19F shift (ppm): -112.622), active: 0.242; in assay [14] (19F shift (ppm): -112.622) it was active: 0.449; in assay [15] (19F shift (ppm): -112.622) it was active: 0.449.

Consider `NC(=O)N1CCN(c2ccc(F)cc2)CC1`, for which the entries for the “Qbind: 19F CPMG 200 ms/0 ms integral ratio” value in [4] (19F shift (ppm): -121.8417) and in [11] (19F shift (ppm): -121.7649) were active: 0.252 and active: 0.512, respectively.

As for `O=C(NCCc1ccc(F)cc1)c1ccco1`, the “Qbind: 19F CPMG 200 ms/0 ms integral ratio” value in assay [4] (19F shift (ppm): -117.3831) is active: 0.24; in assay [6] (19F shift (ppm): -117.436), active: 0.0476.

As to `CNC1CCN(c2ccccc2F)C1=O.Cl` (configuration not stated), in assay [13] (19F shift (ppm): -121.1759), the “Qbind: 19F CPMG 200 ms/0 ms integral ratio” value was active: 0.662.

On to `O=C(NCc1ccccc1)c1cccc(F)c1`, for which the “Qbind: 19F CPMG 200 ms/0 ms integral ratio” value in assay [4] (19F shift (ppm): -112.4823) was active: 0.153; in assay [6] (19F shift (ppm): -112.5551) it was active: 0.0778; in [16] (19F shift (ppm): -112.5551), active: 0.587.
